Data taken from PubChem BioAssay AID504466 (National Center for Advancing Translational Sciences (NCATS), 2011).
The whole screen tested about 330,000 compounds, of which about 4,200 (1.3%) were called active. The shares of active, inactive and inconclusive entries below differ from those in the screen. The call rests on the fitted dose curve; in most records, active means well fitted activation curve with a large enough effect; inconclusive means small, poorly fitted or top-dose-only effect; inactive means no such curve, though single readings can be large or run the other way. Potencies beside an inconclusive call are fits to weak or partial responses and may not hold up.

assay: qHTS screen for small molecules that induce genotoxicity in human embryonic kidney (HEK293T) cells expressing luciferase-tagged ELG1; settings: HEK293T ELG1-luciferase reporter, luminescence, 16 h; series mostly up to 46 µM; further: nearly all actives have a fitted effect of over 60% in size
In short: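 Quantitative HTS format in 1536-well plates. HEK293T ELG1-luciferase reporter cells receive test compound and are incubated 16 hr at 37 °C, 5% CO2; ONE-Glo added, 30 min room temperature, then luminescence read.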
Potency means the concentration at half of the fitted maximal effect; tags describe the fitted curve by direction and shape.

| Compound | Potency |
| --- | --- |
| O=C(CSc1nnc(NC(=O)c2ccc(F)cc2F)s1)NC1CC1 | inconclusive: 3.66 µM [activator, partial curve] |
| CCOc1ccc2nc(NC(=O)Cn3[nH]c(=O)c4ccccc4c3=O)sc2c1 | inconclusive: 23.1 µM [activator, partial curve, poor fit] |
| N#Cc1c(NC(=O)c2ccc([N+](=O)[O-])o2)sc2c1CCC2 | inconclusive: 0.73 µM [activator, partial curve, poor fit] |
| CCc1nnc(NC(=O)c2sc3nc4c(cc3c2N)CCCCC4)s1 | inconclusive: 7.31 µM [activator, partial curve] |
| O=C(Cc1csc(Nc2nc(=S)[nH]c3ccccc23)n1)NCCCN1CCN(c2ccccc2F)CC1 | inconclusive: 29.1 µM [activator, partial curve, poor fit] |
| Cc1ccc(C(=O)NNc2c3ccccc3nc3ccccc23)cc1 | inactive |
| O=C1CCCc2nc(N3CCc4ccccc43)ncc21 | active: 3.26 µM |
| CN1C(=O)CSC1=Nc1cccc(Cl)c1 | inactive |
| COc1ccc(-c2nn(-c3ccccc3)cc2/C=C/C(=O)OCC(=O)Nc2ccccc2C#N)cc1 | inconclusive: 18.3 µM [activator, single point] |
| CCOc1ccc(C2c3c(oc4ccccc4c3=O)C(=O)N2c2ccc(C)cn2)cc1OC (stereo not drawn) | inconclusive: 10.3 µM [activator, partial curve, poor fit] |
| Cc1ccc(S(=O)(=O)CCc2nnc(NC(=O)CCl)s2)cc1C | inactive |
| CCCCC(=O)NNC(=S)NC(=O)c1ccc(C)cc1 | inconclusive: 29.1 µM [activator, partial curve, poor fit] |
| Nc1nc(SCc2ccccc2Cl)n[nH]1 | inconclusive: 11.6 µM [activator, partial curve, poor fit] |
| Clc1ccc(/C=N/NC2=Nc3cccc4cccc2c34)cc1 | inconclusive: 23.1 µM [activator, single point] |
| CC1=CC(c2ccccc2)=Nc2ccc(C)cc2N1 | active: 11.6 µM |
| Fc1ccc2cc(-c3ccccc3F)ncc2c1 | inconclusive: 20.6 µM [activator, partial curve, poor fit] |
| O=C(N/N=C/c1ccccc1O)c1cc(=O)[nH]c2ccccc12 | inconclusive: 25.9 µM [activator, single point] |
| Cc1cc(C(=O)N/N=C/c2ccc[nH]2)n[nH]1 | inconclusive: 23.1 µM [activator, partial curve, poor fit] |
| COc1cccc(C(=O)Nc2ccccc2)c1 | inconclusive: 7.31 µM [activator, partial curve, poor fit] |
| CC(=O)Nc1cccc(-c2csc(NCc3ccco3)n2)c1 | inconclusive: 16.4 µM [activator, partial curve, poor fit] |
| Cc1ccc(-c2nnc(-c3ccccc3Br)o2)cc1 | inconclusive: 2.31 µM [activator, full curve] |
| CCOC(=O)c1sc2cccc(F)c2c1N | inconclusive: 20.6 µM [activator, partial curve, poor fit] |
| Cn1c(SCc2c(F)cccc2Cl)nnc1-c1cccs1 | active: 13 µM |
| CC1=Nc2cc([N+](=O)[O-])ccc2NC(C)(C)C1 | inactive |
| COc1cc(OC)cc(C(=O)Nc2ccc(Cn3ccnc3)cc2)c1 | inconclusive: 23.1 µM [activator, partial curve, poor fit] |

| Compound | Potency |
| --- | --- |
| CC(OC(=O)c1cc(=O)c2cc(Cl)ccc2o1)C(=O)N1CCCC1 (stereo not drawn) | inactive |
| Nc1c2c(nc3sc4c(c13)CCCCC4)CCCCC2 | inconclusive: 2.06 µM [activator, partial curve] |
| CC1=C(C(=O)OC(C)C)C2(O)C(=O)c3ccccc3C2(O)N1 (stereo not drawn) | inactive |
| COc1ccc(-c2ccc(C(=O)C3CC3)cc2)cc1 | active: 2.91 µM |
| CCOc1ccccc1NC(=O)[C@@H](NC(=O)c1ccccc1F)C(C)C | inactive |
| CC(=O)NC12CC3CC(C1)CC(C(=O)OCC(=O)c1cc(C)n(C)c1C)(C3)C2 | inconclusive: 2.31 µM [activator, full curve] |
| CCn1c(=O)cc(OCC(=O)N2CCCC2)c2ccccc21 | inconclusive: 29.1 µM [activator, partial curve, poor fit] |
| O=C(O)c1cccc(-n2cc(-c3cccc(C(F)(F)F)c3)cn2)c1 | inconclusive: 2.31 µM [activator, partial curve] |
| CCNc1nc(N)nc(-c2cc(Cl)ccc2O)n1 | inconclusive: 1.64 µM [activator, partial curve] |
| COc1ccc2nc(N/C(N)=N/S(C)(=O)=O)nc(C)c2c1 | inconclusive: 18.3 µM [activator, partial curve, poor fit] |
| CCCc1[nH]nc2c1C(c1ccc(Br)s1)C(C#N)=C(N)O2 (stereo not drawn) | inconclusive: 20.6 µM [activator, single point] |
| CN(C)c1ccc(NC(=S)NCC2CCCO2)cc1 (stereo not drawn) | inconclusive: 16.4 µM [activator, partial curve, poor fit] |
| Cc1cc(-c2nnc(SCC(=O)Nc3ccccn3)o2)no1 | inconclusive: 0.82 µM [activator, full curve, poor fit] |
| COc1cc(/C=N/NC(=O)c2cccc([N+](=O)[O-])c2)ccc1OCc1ccc(C)cc1 | inconclusive: 8.2 µM [activator, partial curve] |
| O=C(Nc1ccccc1F)c1ccn[nH]1 | inconclusive: 32.6 µM [activator, partial curve, poor fit] |
| COCCn1c(C)cc(C(=O)COC(=O)c2ccc(Cl)c(S(N)(=O)=O)c2)c1C | active: 0.58 µM |
| COc1ccc(NC(=O)CCCC2CCCCC2)c(OC)c1 | active: 18.3 µM |
| O=c1ccc(Oc2nc(N3CCOCC3)nc(N3CCOCC3)n2)nn1-c1ccccc1 | inactive |
| CC1CCN(C(=O)CCCOc2cc(=O)n(C)c3ccccc23)CC1 | active: 18.4 µM |
| CC(C)=NN/C(N)=N/C(=S)Nc1ccc(C)cc1 | inconclusive: 18.4 µM [activator, single point] |
| COC(=O)c1ccc(Sc2ccc(F)cc2)c(N)c1 | inconclusive: 23.1 µM [activator, single point] |
| Cc1ccccc1OCC(=O)Nc1ccc(C)c(S(=O)(=O)N2CCCCCC2)c1 | inconclusive: 23.1 µM [activator, partial curve, poor fit] |
| O=C(NCC(c1ccco1)N1CCCC1)c1cc2ccccc2s1 (stereo not drawn) | inactive |
| COc1ccc(NC(=S)N2CCC(NC(=O)c3ccc(OC)cc3)CC2)cc1 | inactive |
| COc1cc2c(cc1OC)C(c1ccccc1)N(C(=O)c1cccc(S(C)(=O)=O)c1)CC2 (stereo not drawn) | inactive |

| Compound | Potency |
| --- | --- |
| COc1ccc(C(=O)Nc2ccc(-c3n[nH]c(=S)o3)cc2)cc1OC | inactive |
| CC(C)c1ccc(-c2noc(C3CCCN(C(=O)c4ccc(F)cc4F)C3)n2)cc1 (stereo not drawn) | inconclusive: 23.1 µM [activator, single point] |
| CC(C)CCNC(=O)c1ccc2c(c1)ncn2C1CCCC1 | inconclusive: 18.3 µM [activator, partial curve, poor fit] |
| Cc1ccc(N=C2NC(=O)/C(=C\c3ccco3)S2)cc1 | inconclusive: 20.6 µM [activator, partial curve, poor fit] |
| COc1ccc(-c2nnc(-c3ccccc3)o2)cc1OC | inconclusive: 5.8 µM [activator, partial curve] |
| COc1cc(/C=C/C(=O)c2ccc(C)cc2)ccc1OCC#N | inactive |
| CCOC(=O)c1cc2c(ccn2C)n1CC(=O)N1CCN(c2cccc(C(F)(F)F)c2)CC1 | inactive |
| CC(C)N(C(=O)COC(=O)CNC(=O)c1ccc(Br)cc1)c1ccccc1 | inactive |
| CCOC(=O)Cn1c(=NC(=O)c2cccs2)sc2cc(C(=O)OC)ccc21 | inconclusive: 23.1 µM [activator, partial curve, poor fit] |
| O=c1cc(-c2ccsc2)oc2ccc(-c3ccc4cc[nH]c4c3)cc12 | inconclusive: 9.2 µM [activator, partial curve, poor fit] |
| O=C(O)c1ccccc1-c1ccc(/C=C2\SC(=O)N(c3ccccc3)C2=O)o1 | inconclusive: 20.6 µM [activator, single point] |
| Cc1nnc2ccc(-c3cccc(NS(C)(=O)=O)c3)nn12 | inconclusive: 20.6 µM [activator, single point] |
| O=C(Oc1cccnc1)c1ccccc1[N+](=O)[O-] | inactive |
| COc1ccc(/C=C/C(=O)c2ccc(OC)cc2OC)c(OC)c1 | inactive |
| CCOc1ccc(N2Cc3ncccc3C2=O)cc1 | inconclusive: 4.61 µM [activator, partial curve] |
| CNC(=O)/C(C#N)=C/c1ccc(-c2ccccc2[N+](=O)[O-])o1 | inconclusive: 20.6 µM [activator, partial curve, poor fit] |
| O=C(Oc1ccc(Cl)cc1)N1CCCCC1 | active: 16.4 µM |
| O=C(Nc1ccccc1)N1CC=C(c2ccccc2)CC1 | active: 2.59 µM |
| COc1cccc(N2CCN(C(=O)c3ccc(CS(=O)c4ccccc4Cl)o3)CC2)c1 (stereo not drawn) | inactive |
| O=C(COc1cccnc1[N+](=O)[O-])N1N=C(c2ccc(Cl)cc2)CC1c1ccco1 (stereo not drawn) | inactive |
| c1cncc(-c2nc3ccccc3[nH]2)c1 | inactive |
| N=c1n(CCN2CCCCC2)c2ccccc2n1CC(=O)c1cccc([N+](=O)[O-])c1 | inconclusive: 29.1 µM [activator, single point] |
| CCOc1ccc(NC(=O)c2ccc(NC(=O)c3ccc(CN4CCOCC4)cc3)cc2)cc1 | inconclusive: 29.1 µM [activator, partial curve, poor fit] |
